{"sequences": {"note": "Protein sequences, listed by entry. Tags and fused reporters are not part of them. Lines headed by an entry give the natural chain unless they say otherwise; changes in a name come on top. Chains listed by the source or under a name are the forms on record and can include a tag or linker.", "UniProt O95069": "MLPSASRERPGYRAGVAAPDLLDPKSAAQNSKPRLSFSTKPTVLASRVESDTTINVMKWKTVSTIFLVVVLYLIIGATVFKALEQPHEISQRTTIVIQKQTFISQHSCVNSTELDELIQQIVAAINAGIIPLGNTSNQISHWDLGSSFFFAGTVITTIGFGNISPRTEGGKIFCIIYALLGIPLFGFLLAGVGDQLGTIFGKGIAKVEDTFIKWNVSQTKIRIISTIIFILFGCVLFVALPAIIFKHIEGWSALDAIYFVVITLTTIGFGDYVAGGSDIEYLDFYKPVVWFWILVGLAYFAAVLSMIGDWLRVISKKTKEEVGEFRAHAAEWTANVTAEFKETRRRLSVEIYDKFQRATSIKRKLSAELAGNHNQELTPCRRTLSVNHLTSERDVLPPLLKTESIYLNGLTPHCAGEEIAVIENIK", "VN-TREK-1c and VC-TREK-1c (human TREK-1c fused to a half of Venus) (O95069-3, form named)": "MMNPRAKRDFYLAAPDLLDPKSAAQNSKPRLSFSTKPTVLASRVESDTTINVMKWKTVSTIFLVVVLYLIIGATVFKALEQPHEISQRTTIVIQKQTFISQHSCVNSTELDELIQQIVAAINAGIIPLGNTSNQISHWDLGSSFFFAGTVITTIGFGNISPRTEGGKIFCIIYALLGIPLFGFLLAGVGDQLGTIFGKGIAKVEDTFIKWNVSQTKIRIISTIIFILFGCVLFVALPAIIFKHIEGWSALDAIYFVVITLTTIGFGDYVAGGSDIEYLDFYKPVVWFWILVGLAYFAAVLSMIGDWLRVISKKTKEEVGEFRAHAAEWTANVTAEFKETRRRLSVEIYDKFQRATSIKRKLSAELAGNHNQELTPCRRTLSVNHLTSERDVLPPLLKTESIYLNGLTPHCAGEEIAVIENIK", "UniProt P24588": "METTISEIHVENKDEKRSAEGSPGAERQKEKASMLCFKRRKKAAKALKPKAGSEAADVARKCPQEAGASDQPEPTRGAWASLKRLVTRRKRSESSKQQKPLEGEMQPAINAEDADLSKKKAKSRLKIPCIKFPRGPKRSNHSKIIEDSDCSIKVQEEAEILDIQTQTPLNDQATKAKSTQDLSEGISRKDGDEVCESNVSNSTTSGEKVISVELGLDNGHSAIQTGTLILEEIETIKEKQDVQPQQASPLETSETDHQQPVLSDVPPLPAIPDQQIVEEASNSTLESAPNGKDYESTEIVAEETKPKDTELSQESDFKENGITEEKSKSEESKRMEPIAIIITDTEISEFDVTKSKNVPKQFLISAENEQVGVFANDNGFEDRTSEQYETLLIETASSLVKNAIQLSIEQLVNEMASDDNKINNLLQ"}, "source": "paper PMC9724675", "key": {"[1]": {"target": "YFP-tagged TREK-1 (human) (UniProt O95069)", "assay": "co-IP; HEK293 lysates, immunoprecipitation of YFP-tagged TREK-1 (anti-GFP or TREK-1 antibodies), western blot; with or without overexpressed POPDC1-Myc or AKAP79; with or without ISO (10 μM, 10 min)"}, "[2]": {"target": "POPDC1-Myc (Popeye domain-containing protein 1, Myc-tagged) (mouse) (UniProt Q9ES83)", "assay": "co-IP; HEK293 lysates, immunoprecipitation of Myc-tagged POPDC with anti-MYC, western blot (anti-FLAG, anti-GFP)"}, "[3]": {"target": "VN-TREK-1c and VC-TREK-1c (human TREK-1c fused to a half of Venus) (human) (UniProt O95069)", "assay": "split reporter; BiFC (split Venus, VN and VC) in COS-7 cells, which lack detectable endogenous POPDC proteins; plate reader, normalised to DAPI"}, "[4]": {"target": "VN-TREK-1c and VC-TREK-1c (human TREK-1c fused to a half of Venus) (human) (UniProt O95069)", "assay": "split reporter; BiFC (split Venus, VN and VC) in HEK293 cells, which express endogenous POPDC1 and POPDC2; plate reader and live-cell imaging; with or without ISO (10 μM, 10 min, 37°C; dose-response)"}, "[5]": {"target": "T1, POPDC1-VN and POPDC1-VC (mouse POPDC1 fused to a half of Venus) (mouse) (UniProt Q9ES83)", "T1 sequence": "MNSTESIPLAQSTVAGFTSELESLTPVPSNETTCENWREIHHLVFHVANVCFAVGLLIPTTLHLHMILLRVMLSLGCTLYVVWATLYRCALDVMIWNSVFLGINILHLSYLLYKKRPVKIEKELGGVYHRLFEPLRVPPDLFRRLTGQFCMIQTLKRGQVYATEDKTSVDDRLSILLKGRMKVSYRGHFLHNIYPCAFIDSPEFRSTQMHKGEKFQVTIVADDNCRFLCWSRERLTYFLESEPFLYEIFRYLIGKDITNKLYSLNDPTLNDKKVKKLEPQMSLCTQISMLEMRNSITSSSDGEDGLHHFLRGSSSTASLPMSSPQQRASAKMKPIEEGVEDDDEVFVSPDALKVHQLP", "assay": "split reporter; BiFC (split Venus, VN and VC) in HEK293 cells, which express endogenous POPDC1 and POPDC2; plate reader and live-cell imaging; with or without ISO (10 μM, 10 min, 37°C; dose-response)"}}, "note": "Results are given in words; binding and its absence hold for the method and conditions named. In cells and extracts the contact can be indirect. Some binding calls cover weakened binding; strength is not graded here. For part of these data: Where a sequence is shown, tags or fusion partners need not be part of it.", "data": [{"substance": "AKAP79 (from UniProt P24588 1-427)", "values": [{"measurement": "binding", "setting": "[1]", "value": "no binding"}]}, {"substance": "YFP-tagged TREK-1 (from UniProt O95069 1-426)", "values": [{"measurement": "binding", "setting": "[2]", "value": "binds"}]}, {"substance": "VN-TREK-1c and VC-TREK-1c (human TREK-1c fused to a half of Venus) (from UniProt O95069-3 1-422)", "values": [{"measurement": "binding", "setting": "[3]", "value": "binds"}, {"measurement": "binding", "setting": "[4]", "value": "binds"}, {"measurement": "binding", "setting": "[5]", "value": "binds"}]}, {"substance": "GFP-tagged epidermal growth factor receptor (EGFR) (from UniProt P00533 25-1210)", "values": [{"measurement": "binding", "setting": "[2]", "value": "no binding"}]}]}
